# About 120 (0.22%) of roughly 54,000 compounds were called active. The shares of active, inactive and inconclusive entries below differ from those in the screen. Calls follow the shape of the dose curve; as a rule, active = well fitted inhibition curve with a large enough effect; inconclusive = small, poorly fitted or top-dose-only effect, or effect the other way; inactive = flat fitted curve, though single readings scatter. No potency is given beside an inconclusive call; the fits are too rough.
# Target: Fumarate hydratase, mitochondrial (Homo sapiens) (UniProt P07954)
# UniProt P07954, sequence (P07954 whole entry, looked up): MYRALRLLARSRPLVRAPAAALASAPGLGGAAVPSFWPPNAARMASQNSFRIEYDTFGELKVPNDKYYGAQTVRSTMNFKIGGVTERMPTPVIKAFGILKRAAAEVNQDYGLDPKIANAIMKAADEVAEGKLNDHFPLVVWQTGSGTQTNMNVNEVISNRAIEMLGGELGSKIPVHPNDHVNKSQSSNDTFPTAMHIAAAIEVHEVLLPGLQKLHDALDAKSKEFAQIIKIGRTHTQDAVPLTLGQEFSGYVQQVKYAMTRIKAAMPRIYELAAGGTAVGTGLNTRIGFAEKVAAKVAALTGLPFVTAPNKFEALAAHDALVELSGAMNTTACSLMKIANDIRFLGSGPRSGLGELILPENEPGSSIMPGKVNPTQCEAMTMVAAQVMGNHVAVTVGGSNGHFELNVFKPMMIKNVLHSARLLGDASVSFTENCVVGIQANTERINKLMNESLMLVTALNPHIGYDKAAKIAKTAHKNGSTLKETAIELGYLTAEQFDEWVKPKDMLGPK
# Assay: Identification of activators of human fumarate hydratase by quantitative high-throughput screening; also: the screen sought activators but most active calls are inhibition curves; nearly all actives have a fitted effect of over 45% in size
# Conditions: FH coupled MDH/diaphorase resazurin fluorescence, 15 min; series mostly up to 79.9 µM
# Potency is read from the fitted curve at half-maximal effect; tags tell the direction and shape of the fitted curve.
row,Compound,Potency
1,CC(=O)Nc1cccc(Nc2ncnc(N3CCC(OCc4ccc(OC(F)(F)F)cc4)CC3)n2)c1C,"inconclusive [inhibitor, single point]"
2,CCN(CCCNC(=O)c1cc(Nc2ccccc2OC)nc2ccccc12)c1cccc(C)c1,"inconclusive [inhibitor, partial curve, poor fit]"
3,O=S(=O)(NCC(Nc1ccc(Cl)cc1)c1ccccc1)c1ccccc1 (stereo not given),"inconclusive [inhibitor, single point]"
4,CCOC(=O)c1ccc(NC(=O)Nc2cc3c(cc2N2CCCC2)n(C)c(=O)n3C)cc1,"inconclusive [inhibitor, single point]"
5,CCn1ccc2c(OCC(=O)Nc3ccccc3C)cccc2c1=O,inactive
6,COc1cc(NC(=O)c2cc(C)nc3c2c(C)nn3-c2ccccc2Cl)cc(OC)c1,"inconclusive [inhibitor, partial curve]"
7,Fc1ccc(-c2noc3ncnc(NCC4CCN(Cc5ccc(Cl)cc5)CC4)c23)cc1,inactive
8,CC(=O)c1ccc(NC(=O)c2ccc(-c3nc(CSc4ccccc4)c(C)o3)cc2)cc1,inactive
9,CCc1ccc(CNCc2c(C(=O)O)n(Cc3ccc(F)cc3Cl)c3cc(OC)ccc23)cc1,"inconclusive [inhibitor, partial curve, poor fit]"
10,CCc1ccccc1NC(=O)CCc1c(C)nn(-c2ccc(N3CCOCC3)nn2)c1C,"inconclusive [inhibitor, single point]"
11,O=C(NOCC1CC1)c1cc(Br)c(F)c(F)c1Nc1ccc(I)cc1Cl,inactive
12,CCOc1ccc(S(=O)(=O)Nc2nc3ccccc3nc2Nc2ccc(OC)cc2)cc1,inactive
13,C=Cc1ccc(CSc2nc(-c3ccc(C)cc3)nc3c2Cc2c(CO)cnc(C)c2O3)cc1,"inconclusive [inhibitor, partial curve, poor fit]"
14,Cc1ccc(-n2nc(C(=O)N3CCN(c4cc(Cl)ccc4C)CC3)c3c4ccccc4n(C)c3c2=O)cc1,"inconclusive [activator, single point]"
15,Cc1ccc(Cl)cc1-n1ncc2c(Nc3cccc(C)c3C)ncnc21,"inconclusive [inhibitor, partial curve, poor fit]"
16,Cc1ccc(O)c(-c2n[nH]c3c2C(c2ccccc2F)N(Cc2ccco2)C3=O)c1 (stereo not given),"inconclusive [inhibitor, partial curve, poor fit]"
17,COc1ccc(OC)c(CCNC(=O)c2cc3c(=O)n(C)c4ccccc4c3n2C)c1,"inconclusive [inhibitor, partial curve]"
18,O=C(COc1ccc(Cl)cc1)NCCc1csc(-c2cccc(F)c2)n1,inactive
19,Cn1c(=O)oc2cc(S(=O)(=O)N3CCC(C(=O)N4CCN(c5cccc(Cl)c5)CC4)CC3)ccc21,inactive
20,N#C/C(=C\c1ccc(-c2ccc(C(=O)O)cc2)o1)c1nc2ccccc2[nH]1,active: 28.2 µM

row,Compound,Potency
1,Cc1ccc([N+](=O)[O-])cc1S(=O)(=O)N1CCn2cccc2C1c1ccc(F)c(F)c1 (stereo not given),"inconclusive [inhibitor, single point]"
2,COc1ccc(-c2nc(Cn3c(SCc4ccc(F)cc4)nc4cccnc43)c(C)o2)cc1,"inconclusive [inhibitor, single point]"
3,COc1ccc(-c2noc(CSc3nnc(-c4ccncc4)n3-c3ccc(C)c(C)c3)n2)cc1,"inconclusive [inhibitor, partial curve, poor fit]"
4,Cc1ccc(OCC(=O)N(Cc2sccc2C)C2CCS(=O)(=O)C2)cc1 (stereo not given),inactive
5,CCCCN(CCCC)C(=O)CN1C[C@H](c2ccc3c(c2)OCO3)[C@@H](C(=O)O)[C@@H]1c1ccc(OC)cc1,inactive
6,COc1cc(CNc2ccc3[nH]c(=O)[nH]c3c2)cc(Cl)c1OCc1ccc(F)cc1,active: 35.5 µM
7,Cc1nn(C(C)(C)C)c(OC(=O)c2c(F)cccc2F)c1Sc1ccccc1,"inconclusive [inhibitor, partial curve, poor fit]"
8,O=C(Nc1ccc(S(=O)(=O)N(Cc2ccccc2)c2ccccc2)cc1)c1ccc(F)cc1,"inconclusive [inhibitor, partial curve, poor fit]"
9,O=C(CC(c1cccs1)N1Cc2ccccc2C1=O)Nc1cccc(F)c1 (stereo not given),inactive
10,COc1ccc(CNC(=O)c2ccc(-c3nc(CS(=O)c4ccc(C)cc4)c(C)o3)cc2)cc1 (stereo not given),inactive
11,CCc1c(C)nc2nc(-c3ccccc3)nn2c1NCc1ccc(C)cc1,"inconclusive [inhibitor, partial curve, poor fit]"
12,Cc1ccc(Cn2cc(S(=O)(=O)c3ccc(C)cc3)c(=O)c3cc(F)c(N4CCCC4)cc32)cc1,"inconclusive [inhibitor, partial curve, poor fit]"
13,COc1cccc(NC(=O)Cn2c(=O)n(CC(=O)NCCc3ccccc3)c(=O)c3sccc32)c1,inactive
14,c1ccc(C(NCc2cccnc2)(c2ccccc2)c2ccccc2)cc1,"inconclusive [inhibitor, single point]"
15,CC(C)(C)C1CCC(CC2=C(O)c3ccccc3C(=O)C2=O)CC1 (stereo not given),inactive
16,Cc1cc(C)cc(NC(=O)Cn2c3ncccc3c(=O)n2-c2ccc(C)c(C)c2)c1,"inconclusive [inhibitor, partial curve, poor fit]"
17,COC(=O)c1ccc(Cn2c(SCC(=O)N(C)c3ccccc3)nc3ccccc32)cc1,"inconclusive [inhibitor, single point]"
18,CC(C)Cn1cc(C(=O)N2CCN(c3cccc(Cl)c3)CC2)c2c3ccccc3n(C)c2c1=O,"inconclusive [inhibitor, partial curve]"
19,CCn1cc2nc(SCc3ccc(F)cc3)n(Cc3ccc(Cl)cc3)c(=O)c2n1,"inconclusive [inhibitor, partial curve]"
20,COc1ccc(C)cc1NC(=O)Cn1c(=O)oc2cc(S(=O)(=O)NCc3ccccc3)ccc21,inactive

# — PubChem BioAssay AID1347055 (National Center for Advancing Translational Sciences (NCATS), 2019)
